For 92 compounds, Potency results are on record in PubChem BioAssay AID360 (National Center for Advancing Translational Sciences (NCATS), 2006).

In all, about 48,000 compounds went through this assay and about 550 (1.1%) were called active. Not shown: some 4% with an inconclusive outcome. No stated cut-off is given here; in the data, active means potency below about 15 µM; inconclusive means mostly about 16 µM to 33 µM; inactive means weaker than that. Some of the results follow.
Potency means the concentration at half of the fitted maximal effect.

Chain of UniProt P04062 (P04062 whole entry, looked up): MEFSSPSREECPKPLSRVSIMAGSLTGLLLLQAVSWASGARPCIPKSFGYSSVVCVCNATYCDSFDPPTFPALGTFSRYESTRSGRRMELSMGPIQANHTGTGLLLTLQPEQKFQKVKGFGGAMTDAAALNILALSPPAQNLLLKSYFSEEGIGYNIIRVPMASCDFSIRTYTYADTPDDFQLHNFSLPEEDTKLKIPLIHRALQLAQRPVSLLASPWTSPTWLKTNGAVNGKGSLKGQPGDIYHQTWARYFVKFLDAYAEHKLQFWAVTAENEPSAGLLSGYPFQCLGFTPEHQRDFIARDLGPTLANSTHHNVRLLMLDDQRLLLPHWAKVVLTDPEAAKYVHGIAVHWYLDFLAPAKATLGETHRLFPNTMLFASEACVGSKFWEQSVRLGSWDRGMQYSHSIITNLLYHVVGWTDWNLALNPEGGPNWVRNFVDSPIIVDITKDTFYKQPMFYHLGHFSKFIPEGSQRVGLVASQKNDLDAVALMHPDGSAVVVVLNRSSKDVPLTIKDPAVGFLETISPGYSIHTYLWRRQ

For this test, the target named is Lysosomal acid glucosylceramidase (Homo sapiens) (UniProt P04062). Kind of test: Glucocerebrosidase.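 Further: the screen sought inhibitors.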 As to conditions: purified enzyme, resorufin glucoside fluorescence (screen aimed at inhibitors), 20 min; series mostly up to 77 µM. The method in brief:
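Normal human glucocerebrosidase (0.2 nM final) was assayed with resorufin β-D-glucopyranoside (30 uM final) in 50mM citric acid/KH2PO4, 10mM sodium taurocholate, 0.01% tween-20, pH 5.9. Compounds were titrated; fluorescence (Ex 548, Em 600) read after 20 min at RT.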
As for `CCOC(=O)N1CCN(C2=NC3(CCCCC3)C(C#N)C(=O)N2)CC1` (configuration not stated), the Potency was inactive: > 76.9 µM.
`O=C(CSc1nc(-c2ccco2)cc(C(F)(F)F)n1)NCCc1ccccc1`: the Potency was inactive: > 76.9 µM.
Under `Cc1ccc(S(=O)(=O)N2CCOCC2)cc1C(=O)Nc1c(C)n(C)n(-c2ccccc2)c1=O` stands inactive: > 76.9 µM; under `CS(=O)(=O)N(CC(=O)NCCSc1ccc(Cl)cc1)c1ccc2c(c1)OCO2`, inactive: > 76.9 µM; under `Cn1c(=O)n(CCc2ccccc2)c(=O)c2c1nc1n2CCCN1Cc1ccccc1`, “inactive”.
Next, `COC(=O)Cn1cnc2c(nnn2Cc2ccc(Cl)cc2)c1=O`: inactive: > 76.9 µM; `Cc1ccc(C(=O)N(CN2CCCC2=O)c2ccc(F)cc2)cc1C`: inactive: > 76.9 µM; `CCOC(=O)N1CCN(c2c(-c3ccc(C)cc3)c(=O)c2=O)CC1`: inactive: > 76.9 µM.
With `Cc1ccc(CNC2=NCCCCC2)n1C`, the Potency was inactive: > 76.9 µM.
Under `Cc1ccc(S(=O)(=O)Cc2ccc(C(=O)NCc3ccc4c(c3)OCO4)o2)cc1` stands inactive: > 76.9 µM; under `COc1ccc(NC(=O)C2C3C=CC(C3)C2C(=O)NCc2ccco2)cc1` (configuration not stated), inactive: > 76.9 µM.
Next, `Cc1ccc(/C(O)=C2\C(=O)C(=O)N(CCCN(C)C)C2c2ccccn2)cc1` (configuration not stated): inactive: > 76.9 µM.
As for `CC(C)OC(=O)CSc1nnc2n1C(C)(C)Cc1ccccc1-2`, the Potency is inactive: > 76.9 µM.
Next, `COc1ccc(CC(CC(=O)O)C(=O)Nc2ccc(OC)cc2)cc1` (configuration not stated): inactive: > 76.9 µM; `Cc1nnc(SCCn2c(N3CCN(Cc4ccccc4)CC3)nc3c2c(=O)[nH]c(=O)n3C)s1`: inactive: > 76.9 µM; `CCC(C)C(NC(=O)c1ccccc1NC(=O)c1ccco1)C(=O)O` (configuration not stated): inactive: > 76.9 µM.
Under `CCCC(=O)Nc1ccc(Cl)c(NC(=O)CC)c1` stands inactive: > 76.9 µM; under `O=C(N1CCCCCC1)N1CCN(S(=O)(=O)N2CCOCC2)CC1`, inactive: > 76.9 µM; under `Cc1ccc(-c2noc(CCC(=O)N(C)c3ccccc3C)n2)cc1`, inactive: > 76.9 µM.
In the case of `CCn1cc(C2Nc3ccccc3C(=O)N2O)c(C)n1` (configuration not stated), the Potency is inactive: > 76.9 µM.
Under `CC(=O)Nc1cccc(-c2cnc3ccccc3n2)c1` stands inactive: > 76.9 µM.
Regarding `Cc1nc2ncnn2c(C)c1CCC(=O)N1CCN(c2ccccn2)CC1`, the Potency was inactive: > 76.9 µM.
Next, `COCC(C)n1c(C)cc(C(=O)COC(=O)c2oc3ccccc3c2C)c1C` (configuration not stated): inactive: > 76.9 µM.
Under `Cc1ccnc(SCC(=O)Nc2oc(-c3ccccc3)c(-c3ccccc3)c2C#N)n1` stands inactive: > 76.9 µM; under `CC(=O)NC1CCN(C(=O)N2CCCC2)CC1`, inactive: > 76.9 µM.
Under `COc1cc(-c2nnc3sc(-c4ccco4)nn23)cc(OC)c1OC` stands inactive: > 76.9 µM.
For `Cc1cc(N2CCCC2)n2nc(C)c(-c3ccccc3)c2n1`, the Potency was active: 7.9 µM.
With `O=S1(=O)CC(NCc2ccccc2)C(Nc2ccccc2)C1` (configuration not stated), the Potency was inactive: > 76.9 µM.
Next, `CCSc1oc(-c2ccco2)nc1S(=O)(=O)c1ccc(F)cc1`: inactive: > 76.9 µM.
Consider `COc1ccc(C(c2nnnn2Cc2cccs2)N2CCC(C(N)=O)CC2)c(OC)c1` (configuration not stated), for which the Potency was inactive: > 76.9 µM.
Under `Cc1cc2c(c(=O)n1CCCn1ccnc1)C(c1ccco1)C(C#N)=C(N)O2` (configuration not stated) stands inactive: > 76.9 µM; under `COC(=O)c1ccc(C)c(NC(=O)C2COc3ccccc3O2)c1` (configuration not stated), inactive: > 76.9 µM; under `COc1ccc(-n2nnnc2SCC(=O)c2ccc3c(c2)OCCO3)c(OC)c1`, inactive: > 76.9 µM.
With `CCCC(=O)Nc1cc(=O)[nH]c2ncnn12`, the Potency was inactive: > 76.9 µM.
Consider `Cc1cn(C2CC3OCC3O2)c(=O)[nH]c1=O` (configuration not stated), for which the Potency was inactive: > 76.9 µM.
As for `CCn1nnnc1SCCSc1nnnn1CC`, the Potency is inactive: > 76.9 µM.
Under `CCCc1cc(=O)[nH]c(SCc2cc(C(=O)OC)c(C)o2)n1` stands inactive: > 76.9 µM; under `Cc1ccc(-n2c(C)cc(C(=O)COC(=O)c3c(C)noc3C)c2C)cc1`, inactive: > 76.9 µM.
Under `Cc1nn(-c2ccccc2)c2sc(C(=O)N3CCc4ccccc4C3)cc12` stands inactive: > 76.9 µM.
Under `Cc1nc(/C=[N+](\[O-])C(C)(C)/C=N/O)n(O)c1C` stands inactive: > 76.9 µM; under `CCN(c1ccccc1)S(=O)(=O)c1ccc2[nH]cc(C(=O)N3CCOCC3)c(=O)c2c1`, inactive: > 76.9 µM; under `CCCOn1c(OCC(C)C)nc2ccccc2c1=O`, inactive: > 76.9 µM.
For `COC(=O)C(C)n1cnc2c(nnn2Cc2ccc(Cl)cc2)c1=O` (configuration not stated), the Potency is inactive: > 76.9 µM.
Under `Cc1cccc(C(CC(=O)N2CCCC2)c2ccccc2)c1O` (configuration not stated) stands inactive: > 76.9 µM; under `CSc1ncc(Cl)c(C(=O)Nc2nnc(SC)s2)n1`, inactive: > 76.9 µM; under `CC(=O)N(CC1CCCO1)c1nnc(-c2ccccn2)s1` (configuration not stated), inactive: > 76.9 µM.
Next, `O=C(O)C1C2CCC(C2)C1C(=O)NCc1ccco1` (configuration not stated): inactive: > 76.9 µM; `CC(Sc1nc2ccccc2o1)C(=O)O` (configuration not stated): inactive: > 76.9 µM; `CCOC(=O)C1CCCN(Cc2nc(N)nc(Nc3ccc(C)cc3)n2)C1` (configuration not stated): inactive: > 76.9 µM.
Next, `CC1Cc2ccccc2N1C(=O)CSc1nnc(Cn2nnc3ccccc32)n1C` (configuration not stated): inactive: > 76.9 µM; `COc1ccc(N2CCN(CC(=O)Nc3ccc(-n4cnnn4)cc3)CC2)cc1`: inactive: > 76.9 µM; `COC(=O)c1ccc(C(=O)OC)c(NC(=O)c2oc(C)nc2C)c1`: inactive: > 76.9 µM.
For `Cc1cc(C(=O)CN2C(=O)c3ccccc3S2(=O)=O)c(C)n1CC1CCCO1` (configuration not stated), the Potency was inactive: > 76.9 µM.
Under `CCOc1ccc(C)cc1S(=O)(=O)Nc1cccnc1` stands inactive: > 76.9 µM; under `Nc1nc(C2CCCN2S(=O)(=O)c2ccc(Cl)cc2)cs1` (configuration not stated), inactive: > 76.9 µM.
Under `CS(=O)(=O)NCc1nnc(SCc2ccccc2C(F)(F)F)o1` stands inactive: > 76.9 µM; under `COc1ccc(CCNC(=O)c2oc3ccc(S(=O)(=O)N4CCOCC4)cc3c2C)cc1OC`, inactive: > 76.9 µM.
With `N#Cc1cc2c(=O)n3ccccc3nc2n(CCCN2CCOCC2)c1=O`, the Potency is inactive: > 76.9 µM.
Next, `c1nc(NCCN2CCOCC2)c2sc3nc(N4CCOCC4)c4c(c3c2n1)CCC4`: inactive: > 76.9 µM; `CN(C)S(=O)(=O)c1ccc(C(=O)Nc2ccccc2C(=O)O)cc1`: inactive: > 76.9 µM; `CC(C)COc1ccc(C(=O)N(Cc2ccco2)C2CCS(=O)(=O)C2)cc1` (configuration not stated): inactive: > 76.9 µM.
Next, `COc1ccccc1NC1=NCC(=O)N1Cc1ccccc1`: inactive: > 76.9 µM; `COc1ccc(C2C3=C(Nc4ncnn42)c2ccccc2CC3)cc1OC` (configuration not stated): inactive: > 76.9 µM.
Next, `Cn1nnc(C(O)CNCc2cccs2)n1` (configuration not stated): inactive: > 76.9 µM.
As for `CCN(CC)CCNC(=O)Cn1c(-c2ccccn2)nc2ccccc21`, the Potency was inactive: > 76.9 µM.
Next, `COC(=O)COc1ccc(S(=O)(=O)Nc2ccc3c(c2)OCCO3)cc1Cl`: active: 13.9 µM; `OCC#Cc1cnc2ccccc2c1`: inactive: > 76.9 µM.
Next, `CC(c1nnc(SCC(=O)NC(=O)NCc2ccco2)n1-c1ccc(Cl)cc1)N(C)C` (configuration not stated): inactive: > 76.9 µM; `Cc1ccc(NC(=O)c2ccccc2F)nc1`: inactive: > 76.9 µM; `Cc1cccc(-c2nsc(SCC(=O)NCc3ccco3)n2)c1`: inactive: > 76.9 µM.
`COC(=O)c1cc(COC(=O)c2cccnc2SC)oc1C`: the Potency was inactive: > 76.9 µM.
With `COc1ccc(C(=O)NCCCn2ccnc2)cc1`, the Potency was inactive: > 76.9 µM.
Under `CC1(CC(=O)O)C(=O)N=C2C=CC=CN21` (configuration not stated) stands inactive: > 76.9 µM.
Under `CCn1c(SCC(=O)Nc2nccs2)nnc1-c1ccc(C)cc1` stands inactive: > 76.9 µM; under `Cc1c(OCc2nn[nH]n2)ccc2c3c(c(=O)oc12)CCC(C)C3` (configuration not stated), inactive: > 76.9 µM; under `Cn1c(=O)n(C)c2cc(NC(=O)c3cc4ccccc4o3)ccc21`, inactive: > 76.9 µM.
On to `CCOC(=O)c1ccc(CNC(=O)c2cc3cccc(OC)c3oc2=O)o1`, for which the Potency was inactive: > 76.9 µM.
Under `Cc1ccccc1C(=O)Nc1cccc(N)c1` stands inactive: > 76.9 µM; under `Cc1[nH]c2ccccc2c1C(=O)CN1CCCCC1CCO` (configuration not stated), inactive: > 76.9 µM; under `CC(O)c1cccc(NC2=CC(=O)CC(C)(C)C2)c1` (configuration not stated), inactive: > 76.9 µM.
Under `CCOCCCn1c(=NC(=O)c2cccnc2)c(C(=O)OCC)cc2c(=O)n3ccccc3nc21` stands “inactive”.
Next, `O=C(C1CCN(S(=O)(=O)c2cccc3nsnc23)CC1)N1CCN(c2ccccc2F)CC1`: inactive: > 76.9 µM; `Cc1ccc(-c2csc(NC(=O)CSc3ncn(-c4ccccc4)n3)n2)cc1`: inactive: > 76.9 µM; `Nn1c(SCC(=O)Nc2ccc3c(c2)OCCO3)nnc1-c1ccccn1`: inactive: > 76.9 µM.
For `CCOC(=O)Cc1csc(SCC(=O)N2CCN(c3ccc(OC)cc3)CC2)n1`, the Potency is inactive: > 76.9 µM.
Under `CC(C)(C)NC(=O)C1CCN(S(=O)(=O)c2ccc(Br)cc2)CC1` stands inactive: > 76.9 µM; under `Cc1ccccc1-n1nnnc1SCC(N)=O`, inactive: > 76.9 µM.
Under `O=C(O)CCC(=O)N1CCN(c2cccc(Cl)c2)CC1` stands inactive: > 76.9 µM; under `O=C(NCc1ccc2c(c1)OCO2)c1ccc2c(c1)C(=O)N(Cc1cccnc1)C2=O`, inactive: > 76.9 µM.
With `CC(C)(C)C(=O)Nc1c2c(nc3c1CCC3)CCCC2`, the Potency is inactive: > 76.9 µM.
Under `Cn1c(SCC(=O)Nc2ccc(N3CCOCC3)c(Cl)c2)nnc1-c1ccccc1` stands inactive: > 76.9 µM.
Turning to `COc1ccccc1C1C(C(=O)c2cc3ccccc3o2)=C(O)C(=O)N1CCN1CCOCC1` (configuration not stated), the Potency is inactive: > 76.9 µM.
